Among all 45,000 compounds or so, about 200 (0.44%) were called active. Inconclusive results (about 7%) are left out. Calls come from the whole dose curve; as a rule, active = well fitted activation curve with a large enough effect; inconclusive = small, poorly fitted or top-dose-only effect; inactive = no such curve, though single readings can be large or run the other way. The list shows a part of the results.
Experiment: qHTS of TDP-43 Inhibitors: NCGC Sytravon Library Screen; note: 0% is about no effect; nearly all actives have a fitted effect of over 55% in size
Details: yeast TDP-43 toxicity rescue, BacTiter-Glo growth, 24 h; series mostly up to 46.1 µM; growth rescue (activation): at the top concentration
Procedure, shortened: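 TDP-43-expressing yeast, pregrown in raffinose, seeded at OD600 0.02 in galactose medium with compound for 24 hr at 30 deg C. Growth read by BacTiter-Glo luminescence, so rescue of toxicity appears as activation.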

Structure (SMILES)	growth rescue (activation)
O=C(CNC(=S)NC(=O)c1ccccc1)c1ccccc1	inactive: 24.2%
O=C1C2CC=CCC2C(=O)N1c1ccc(NCCc2ccccc2)c([N+](=O)[O-])c1 (centres undefined)	inactive: -24.9%
CCNc1nc(OC)nc(Oc2ccc(=O)n(-c3ccccc3)n2)n1	inactive: 26.4%
CC(=O)Nc1ccc(OCCOc2ccc(/C=C3\C(=N)N4N=C(C)SC4=NC3=O)cc2)cc1	inactive: -2.22%
CCOc1ccc(NC(=O)C2CC(C)=C(C)CC2C(=O)O)cc1 (centres undefined)	inactive: 7.92%
Cc1ccc(C(=O)NNC(=O)C2CCN(c3ncccn3)CC2)cc1	inactive: 2.69%
CCCn1c(SCC(=O)Nc2ccc3c(c2)OCCO3)n[nH]c1=O	inactive: -0.0874%
CCN(Cc1ccccc1)C(=O)CSc1nncn1C	inactive: 6.44%
Cc1ccc(NC(=O)COc2ncnc3c(Cl)cc(Cl)cc23)cc1[N+](=O)[O-]	inactive: -0.828%
O=S(=O)(/N=C(/c1ccccc1)N1CCOCC1)c1ccc(F)cc1	inactive: -12.2%
COc1cccc(CC(=O)Nc2ccc(F)c(S(=O)(=O)N3CCOCC3)c2)c1	inactive: -12.5%
Cc1ccc(C)c(NC(=O)CN(C)C(=O)c2cccc(S(=O)(=O)N3CCCC3)c2)c1	inactive: -2.62%
CC(C)C(NS(=O)(=O)c1cccs1)C(=O)NCc1ccccc1Cl (centres undefined)	inactive: -21.5%
Brc1ccc(-c2ccc(/C=N/Nc3nc(N4CCOCC4)nc(N4CCOCC4)n3)o2)cc1	inactive: 11.5%
CCNC(=O)C1(C)CCN(Cc2ccccc2C#N)C1 (centres undefined)	inactive: -9.12%
Cc1ccc(C(=O)NC(=O)CSc2nncn2C)cc1	inactive: 10.1%
Cc1ccc(S(=O)(=O)N/N=C/c2c(F)cccc2Cl)cc1	inactive: 34.7%
CCOC(=O)c1cnc(-c2ccccc2)nc1-c1ccccc1	inactive: 8.8%
O=C(Nc1sc2c(c1C(=O)O)CCCCC2)c1ccccc1	inactive: -92.5%
CC1Cc2ccccc2N1Cc1ccc([N+](=O)[O-])cc1 (centres undefined)	inactive: 3.84%
COc1ccccc1NC(=S)NN1CCN(C)CC1	inactive: 10.5%
Cc1ccc(N(CC(O)CN2C(=O)NC(C)(C)C2=O)S(=O)(=O)c2ccc(C)cc2)cc1 (centres undefined)	inactive: -6.15%

Structure (SMILES)	growth rescue (activation)
O=C(Nc1ccccc1C(F)(F)F)C1CCN(C(=O)c2cccs2)CC1	inactive: 12.5%
O=c1c2ccc(Cl)cc2nc2n1CC/C2=C\c1cccc(O)c1	inactive: 16.2%
O=C(Nc1ccc(F)cc1)c1ccccc1NS(=O)(=O)N1CCCC1	inactive: 8.61%
COc1ccc(OC)c(CC(=O)N2CCc3cc(OC)c(OC)cc3C2)c1	inactive: -6.18%
O=C(c1cc(-c2ccccc2)on1)N1CCc2ccccc2C1	inactive: 6.76%
O=C(Cn1cncn1)N/N=C/c1ccc(Cl)cc1	inactive: 9.6%
COc1ccc(OCC(=O)Nc2ccc(Cl)cc2)cc1	inactive: 17.5%
CC(C)n1cc(CN2CCC(Oc3ccc(C(=O)N4CCCCC4)cc3)CC2)cn1	inactive: 21.6%
O=S(=O)(c1c(F)cccc1F)N1CCN(C(=S)NCc2ccc3c(c2)OCO3)CC1	inactive: 13.1%
O=C(CSc1nncs1)NNC(=O)c1ccccc1Br	inactive: -3.87%
CCOc1cc(CN2CCN(S(=O)(=O)Cc3ccccc3)CC2)ccc1OC	inactive: -13.9%
NNC(=O)CCN1CCN(C(c2ccccc2)c2ccccc2)CC1	inactive: 7.97%
CSc1nc(C)c2c(n1)N(c1ccc(C(F)(F)F)cc1)CC2	inactive: 19.2%
CCC(CC)C(=O)Nc1nc(-c2ccc3c(c2)CCN3C(=O)C2CC2)c(C)s1	inactive: -0.637%
COC(=O)CN(c1ccc(Cl)cc1C)S(C)(=O)=O	inactive: 6.54%
CCCC(C)c1nnc(NC(=O)C2CC(=O)N(c3ccc(OCC)cc3)C2)s1 (centres undefined)	inactive: 5.56%
O=C(CSc1n[nH]c(-c2ccccc2)n1)N1CCCC1	inactive: 11.8%
CC(C)n1nnnc1SCC(=O)Nc1ccccc1N1CCOCC1	inactive: 33.7%
COc1ccc(C(=O)CCC(=O)NCCc2c[nH]c3ccccc23)cc1OC	inactive: -3.98%
CCCN(CCC)CC(O)Cn1cc(/C=C/C(=O)c2ccc(OC)cc2)c2ccccc21 (centres undefined)	inactive: 11.3%
O=c1[nH]ncn1-c1ccc(Br)cc1	inactive: 7.63%
c1cc(CNCC2CCCO2)ccn1 (centres undefined)	inactive: 3.37%

Structure (SMILES)	growth rescue (activation)
COc1ccc(-c2ccnc3cc(C(=O)O)nn23)cc1	inactive: 7.57%
O=C(NCCc1ccccc1)C1CCN(Cc2ccccc2F)CC1	inactive: -10.7%
COc1ccccc1N(C)S(=O)(=O)c1ccc(C(=O)NC2CCCCCC2)cc1	inactive: 29%
CC(C)(C)c1nc2ccc(NS(=O)(=O)c3ccc(F)c(F)c3F)cc2[nH]1	inactive: -5.77%
COC(=O)Cn1cc([N+](=O)[O-])nc1C	inactive: -5.66%
Cc1ccc(S(=O)(=O)NNC(=O)CCC(=O)Nc2ccc(C)cc2C)cc1	inactive: -2.06%
O=C(COc1ccccc1)Nc1c(Cl)ccc2nsnc12	inactive: 12.7%
Cc1ccccc1S(=O)(=O)c1cc(C#N)c(=O)[nH]c1N	inactive: 2.32%
COc1ccc(C(=O)OCC(=O)NCCN2C(=O)CSC2=O)cc1[N+](=O)[O-]	inactive: -11.6%
Cn1c(=O)c(C(=O)COc2ccc(F)cc2Cl)c(N)n(Cc2ccccc2)c1=O	inactive: 4.49%
O=C(/C=C/c1ccccc1Cl)N(Cc1ccc(Cl)cc1)C1CCS(=O)(=O)C1 (centres undefined)	inactive: -15.6%
COc1ccc(CCNC(=O)c2cc3c(=O)n4cccc(C)c4nc3n(Cc3ccco3)c2=N)cc1OC	inactive: -8.93%
Cc1ccc(S(=O)(=O)CC(=O)Nc2nnc(C)s2)cc1	inactive: 3.17%
CC(Oc1ccccc1Cl)C(=O)Nc1ccc(S(=O)(=O)N2CCN(C)CC2)cc1 (centres undefined)	inactive: 14.4%
Cc1noc(NS(=O)(=O)c2ccc(N/C=C\C(=O)c3cccs3)cc2)c1C	inactive: -18.2%
Cn1cnnc1SCC(=O)NNC(=O)c1ccc(Cl)cc1	inactive: -2.11%
COc1ccc(CCN(C)C2CCCN(C(=O)c3ccnn3C)C2)cc1OC (centres undefined)	inactive: 8.83%
Cc1ccc2c(c1)C(O)(C1COC(C)(C)CC1=O)C(=O)N2C (centres undefined)	inactive: -4.89%
N#Cc1ccsc1NC(=O)COC(=O)c1cc(Br)ccc1O	inactive: 0.171%
O=C(Nc1ccc2c(c1)OCO2)c1csc([C@@H]2O[C@H](CO)[C@H](O)[C@H](O)[C@H]2O)n1	inactive: 12.9%
CCOC(=O)C1(CCc2ccccc2)CCN(C(=O)c2cnc(C)cn2)CC1	inactive: 12.7%
Cc1[nH]n(-c2ccccc2)c(=O)c1N=Nc1ccc2c(c1)OCO2	inactive: 4.16%

Structure (SMILES)	growth rescue (activation)
Cc1ccc(CC(=O)Nc2ccc(F)c([N+](=O)[O-])c2)cc1C	inactive: 18.3%
COc1ccc(NC(=O)C2(S(=O)(=O)c3ccc(C)cc3)CC2)cc1OC	inactive: 0.969%
COc1ccc(CCn2c(=N)c(C(=O)NCc3ccco3)cc3c(=O)n4cccc(C)c4nc32)cc1	inactive: -5.28%
COc1ccc(-c2cc(C(=O)NC3CCCCC3)no2)cc1OC	inactive: 8.07%
COc1cc(/C=C/C(=O)NCC(=O)N2CCC(N(C)CCN3CCOCC3)CC2)ccc1OC(C)C	inactive: 6.68%
COc1ccc2nc(C)cc(SCC(=O)NNC(=O)COc3cccc4ccccc34)c2c1	inactive: 7.3%
Cc1ccc(NC(=O)C(c2ccc(Cl)cc2Cl)N2CCCC2)cc1 (centres undefined)	inactive: 15.8%
O=C1NCC(COc2ccc(Cl)cc2)O1 (centres undefined)	inactive: 2.59%
O=C(O)Cn1nnnc1SCC(=O)Nc1ccc(F)cc1F	inactive: 10.6%
Cc1cc(C)nc(NC(=O)Cc2cccs2)n1	inactive: 4.58%
CCCS(=O)(=O)NC(=O)C1(C)CCN(C(=O)c2cc(F)cc(F)c2)C1 (centres undefined)	inactive: 7.58%
CNC(=O)C1CC(=O)N(c2ccc(OCC(=O)Nc3ccc(F)cc3)cc2)C1 (centres undefined)	inactive: 13.6%
COC(=O)c1ccccc1OC(=O)c1cc2ccccc2oc1=O	inactive: 14.4%
CCNc1nc(NC(C)(C)C)nc(N2CCCCC2)n1	inactive: -13.2%
COc1ccc(NC(=S)NCc2ccc3c(c2)OCO3)cc1	inactive: 25.2%
COc1ccc(OCCN2CCN(C(=O)c3ccc(OC(F)F)c(OC)c3)CC2)cc1	inactive: -2.86%
CCc1nc2c(OCC(=O)c3ccc(F)cc3)cccn2c1N(C)C(=O)c1cccs1	inactive: 19.9%
Cn1c(-c2ccc(F)cc2)cnc1SCC(=O)NNC(=O)Cc1ccccc1	inactive: -11.5%
Cc1ccc(N(C(=O)c2csnn2)C(C(=O)NC2CCCC2)c2ccncc2)c(C)c1 (centres undefined)	inactive: -13%
Cc1cccc(OCC(=O)Nc2ccc3oc(=O)ccc3c2)c1C	inactive: 9.29%
Cc1ccc(/C=N/NC(=O)c2ccncc2)cc1	inactive: 6.88%
Nc1nc(SC2c3cccc4cccc(c34)C2NS(=O)(=O)c2ccccc2)n[nH]1 (centres undefined)	inactive: 14.1%

Structure (SMILES)	growth rescue (activation)
Cc1ccc(NC(=O)c2nc(S(=O)(=O)Cc3ccccc3)ncc2Cl)cc1	inactive: -79.5%
CCCN1C(=O)/C(=c2\sc3nc(=O)c(Cc4ccc(C)cc4)nn3c2=O)c2ccccc21	inactive: -26.8%
CC(=O)Nc1ccc(SCc2csc(C)n2)cc1	inactive: 9.8%
COc1ccc(-c2nn(-c3ccccc3)cc2/C=N/NC(N)=S)cc1OC	inactive: 9.2%
NC(=O)CSc1n[nH]c(-c2ccco2)n1	inactive: 0.938%
Cc1cc(C)c(S(=O)(=O)Nc2ccc(N(C)C)cc2)c(C)c1-n1cnnn1	inactive: 1.22%
CC(C)Cc1nc(NCCN2CCOCC2)c(C#N)c2c1COC(C)(C)C2	inactive: 9.8%
O=C(CNC(=O)c1ccccc1)Nc1cccc(C(F)(F)F)c1	inactive: 27.1%
CCOC(=O)C1=C(C(F)(F)F)Nc2ncnn2C1c1cccc(OC)c1OC (centres undefined)	inactive: 0.475%
CCn1cc(/C=N/NC(=O)COc2cccc3cccnc23)c2ccccc21	inactive: 13.1%
Cc1ccc(-c2nc(CN3CCN(C(=O)C4CCCO4)CC3)cs2)cc1 (centres undefined)	inactive: 10.7%
Cc1ccc(CNC(=O)COc2ccc(C)nc2[N+](=O)[O-])cc1	inactive: 5.89%
COc1cccc(NC(=O)COC(=O)c2ccc3ccccc3n2)c1	inactive: -6.07%
CCNc1nc(N2CCCC2)nc(N2CCCC2)n1	inactive: 4.2%
COc1cc(NC(=O)CSc2ncnc3sc4c(c23)CCCC4)c(C(=O)O)cc1OC	inactive: 21%
O=C(c1ccc(Cl)c(S(=O)(=O)N2CCOCC2)c1)N1CCCC1	inactive: 17.7%
CC(=O)Nc1ccc(S(=O)(=O)Nc2ccc3c(c2)OCO3)cc1	inactive: 4.59%
CCc1ccccc1N(CC(=O)NC1CCCCC1)C(=O)CCC(=O)Nc1ccccn1	inactive: -4.98%
CCOc1ccc(/C=N/OCC(=O)Nc2cc(C)on2)cc1	inactive: 3.32%
COc1cc(C(=O)NCCCNc2nc3c(C)cc(C)cc3cc2C#N)cc(OC)c1OC	inactive: 2.8%
CCOC(=O)c1nnn(-c2nonc2N)c1CN(CC)CC	inactive: -19.7%

Reference: PubChem BioAssay AID1347073 (National Center for Advancing Translational Sciences (NCATS), 2019)
